Read counts are not given, so values of variants with three or more changes are uncertain.
B1: CPEB3 Ribozyme (parent)
chain: UAACAGGGGGCCACAGCAGAAGCGUUCACGUCGCAGCCCCUGUCAGAUUCUGGUGAAUCUGCGAAUUCUGCUGUAUAUCUC

Variants of: B1
Test: self-cleavage, relative activity (ratio to wild type); higher = more cleavage; in vitro, sequencing
Outline: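 Barcoded CPEB3 ribozyme mutants, produced by rounds of error-prone PCR, self-cleaved while being transcribed with T7 RNA polymerase for 5 hours at 37°C and during a subsequent 15 min DNase I step before EDTA was added. Sequencing of template-switched cDNA on Illumina gave cleaved and total reads, and DNA sequencing assigned barcodes to variants. Each variant's relative activity is its cleaved/total read fraction divided by the unmutated ribozyme's fraction, averaged across three batches. A variant needed a minimum of 5 reads.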
U1C A13U A18G G22A A47G showed a self-cleavage of 0.42.
U1C A3G A15U U43C U54C U76A gave a self-cleavage of 0.18.
Work on U1C A3G A45U A56U U67C yielded a self-cleavage of 0.05.
For U1C A28U G53A U60C U67G U78A, the self-cleavage was 0.12.
Work on U1C A13G A64G yielded a self-cleavage of 0.6.
U1C A13G U31A U48C C59U U72C showed a self-cleavage of 0.03.
U1A U54A U76A gave a self-cleavage of 1.14.
Variant U1C A20U U31C A35U U41C has a self-cleavage of 0.25.
U1C A5U A15G A35G A47G U76G gave a self-cleavage of 0.25.
In the case of U1C A28G C50A U51C A57G, the self-cleavage is reported as 0.26.
For U1A G7U C37U U54A, the self-cleavage was 0.05.
For U1C A3G U51A A57G A65G, the self-cleavage was 0.14.
With U1A G7A U58A A65G the self-cleavage was 0.06.
Work on U1C A13G U31A U54A A65U yielded a self-cleavage of 0.06.
With U1A G19A U43A the self-cleavage was 0.24.
With U1A U31G U72C the self-cleavage was 0.42.
For U1A U41C U48C U72C, the self-cleavage was 0.63.
With U1C A15G U26C U48C G52U U69A the self-cleavage was 0.4.
Work on U1C A2G G9A A18G G22A U26C yielded a self-cleavage of 0.05.
U1C A2U U67C gave a self-cleavage of 0.19.
With U1C A15U U25C A57G the self-cleavage was 0.4.
Variant U1C A5G C62U has a self-cleavage of 0.34.
U1A U31C U54G showed a self-cleavage of 0.8.
For U1C A15C A20G A75U, the self-cleavage was 0.87.
For U1C A13U A15G A18U C39G U69A U72A, the self-cleavage was 0.05.
Variant U1C A3U C4A C23A U25C has a self-cleavage of 0.07.
U1A G8A U31C C81U gave a self-cleavage of 0.08.
With U1C A18G U54A the self-cleavage was 0.55.
In the case of U1C A18G A28G U48C U74C U78C, the self-cleavage is reported as 0.04.
For U1C A21U U26A, the self-cleavage was 0.15.
Variant U1A U49C U54C A75G has a self-cleavage of 0.28.
In the case of U1C A47U U51A U69A, the self-cleavage is reported as 0.05.
Variant U1C A2U C38A has a self-cleavage of 0.41.
For U1A G30A C40A U41A, the self-cleavage was 0.1.
Work on U1C A18G C27G U54C A56U yielded a self-cleavage of 0.03.
In the case of U1C A18G U26C A28C G33A G63A A75G, the self-cleavage is reported as 0.04.
U1C A47G U80C showed a self-cleavage of 1.04.
In the case of U1A G7C A18U A20U U41A, the self-cleavage is reported as 0.21.
Variant U1C A28G C38U A47G U51A has a self-cleavage of 0.26.
With U1C A5G A28U C32U U69C U74C the self-cleavage was 0.08.
In the case of U1A U41A U43C, the self-cleavage is reported as 0.2.
Work on U1C A28G A56C U67C U78C yielded a self-cleavage of 0.18.
U1A C32U U54A showed a self-cleavage of 0.3.
Variant U1C A5U G7A C38A A64G U78C has a self-cleavage of 0.11.
U1A U54C U72C gave a self-cleavage of 0.96.
Work on U1C A18U U43G C62G yielded a self-cleavage of 0.05.
In the case of U1C A2G A3G A15G, the self-cleavage is reported as 0.96.
In the case of U1C A18U U26C C71G, the self-cleavage is reported as 0.07.
With U1C A45U U48C G63A the self-cleavage was 0.07.
With U1A G6U A47C U49C A64G the self-cleavage was 0.06.
U1A G33A A35U U51C U54A U67C showed a self-cleavage of 0.11.
In the case of U1C A21G U31A U48C U54G A65G U78C, the self-cleavage is reported as 0.1.
With U1C A47G A64G U67A the self-cleavage was 0.21.
Work on U1C A3G U51C yielded a self-cleavage of 0.87.
In the case of U1C A15G U41A U66G, the self-cleavage is reported as 0.21.
U1A G16C A28G A47G A57G U60C U66G showed a self-cleavage of 0.08.
U1C A56U U67C gave a self-cleavage of 0.18.
U1C A21G A35G showed a self-cleavage of 1.09.
In the case of U1A U51C A56G G63A U78C U80C, the self-cleavage is reported as 0.65.
U1C A15U A20G C23U U31A U43C gave a self-cleavage of 0.05.
With U1C A15G A57G the self-cleavage was 0.89.
Variant U1A U26A G55A U66C U72A A75U has a self-cleavage of 0.11.
With U1A U25A U58A U80C the self-cleavage was 0.11.
U1A U25C A35G U41A gave a self-cleavage of 0.31.
For U1C A13C A20G U54C, the self-cleavage was 0.34.
With U1A U41A U48C U60C U67C the self-cleavage was 0.07.
For U1C A3G U54C C79A U80C, the self-cleavage was 0.96.
With U1C A2U A45U U72C U80C the self-cleavage was 0.36.
U1C A2G A18U A21U G22U U41A U43C showed a self-cleavage of 0.07.
Work on U1C A18U U25C C62U U74C yielded a self-cleavage of 0.06.
Variant U1C A2U A3G A57G C62G A65U has a self-cleavage of 0.4.
With U1C A5U C39U A47U U54C A56C A77G the self-cleavage was 0.1.
U1C A2G A56G gave a self-cleavage of 0.69.
U1C A28G A65U showed a self-cleavage of 0.33.
For U1A G9A U41G A56G U60C, the self-cleavage was 0.11.
In the case of U1A U25C A45G U60C, the self-cleavage is reported as 0.29.
U1A G19A A20U gave a self-cleavage of 0.27.
U1C A3U A20G C79U showed a self-cleavage of 1.13.
Variant U1C A21U C34U has a self-cleavage of 0.08.
U1C A18G A20G U31C U72C showed a self-cleavage of 0.62.
For U1A U31C U60G U66C, the self-cleavage was 0.11.
Variant U1C A28C U69C has a self-cleavage of 0.13.
With U1C A5U A20G U43A U51C U67C the self-cleavage was 1.16.
With U1C A13G C44A A45G U67A U78A the self-cleavage was 0.05.
With U1C A3G A56U the self-cleavage was 0.63.
U1C A13U A57G showed a self-cleavage of 0.76.
U1A U31C A57G gave a self-cleavage of 0.22.
In the case of U1C A18G U51C A64G U67C U80A, the self-cleavage is reported as 0.13.
Variant U1C A3C A15G A64G U76C has a self-cleavage of 0.21.
In the case of U1A U67C U72C A75G, the self-cleavage is reported as 0.27.
U1C A15U A28G U76C showed a self-cleavage of 0.33.
U1C A13U U60C U69C gave a self-cleavage of 0.35.
Work on U1C A45G U69C U80C yielded a self-cleavage of 0.19.
With U1C A3G G9U A35U C59U U69G the self-cleavage was 0.16.
In the case of U1C A28G A77C, the self-cleavage is reported as 0.81.
Variant U1A G8A C11G U25C U74C A77G has a self-cleavage of 0.04.
For U1C A2G C23G, the self-cleavage was 0.45.
With U1C A13U U41A the self-cleavage was 0.35.
In the case of U1A U25G A28G A45U U54G A64G, the self-cleavage is reported as 0.05.
Variant U1C A18C U78A has a self-cleavage of 0.12.
U1A U41A C44U showed a self-cleavage of 0.37.
In the case of U1C A2G G9A U54C U72A, the self-cleavage is reported as 0.05.
U1C A13U U54C U60C U80C showed a self-cleavage of 0.75.
For U1C A5G C39U U67C U69C, the self-cleavage was 0.06.
U1C A2U U76A gave a self-cleavage of 0.94.
In the case of U1C A56U U58A, the self-cleavage is reported as 0.31.
In the case of U1C A28G A35G U51A U69G, the self-cleavage is reported as 0.75.
For U1A U26A U78A, the self-cleavage was 0.96.
For U1A G8U A21G U31C U43G A45G U66C, the self-cleavage was 0.03.
With U1A U48C A57G U69C the self-cleavage was 0.51.
With U1C A2G A15C C44U U66A the self-cleavage was 0.03.
U1A G6U A20G U31C G63C A64G showed a self-cleavage of 0.22.
For U1C A3G A21G A47G A57G, the self-cleavage was 0.35.
Work on U1A U25C A56G yielded a self-cleavage of 0.13.
For U1C A2G U26C G30A C37A U54C U72G, the self-cleavage was 0.08.
With U1C A28U U49C the self-cleavage was 0.32.
Work on U1C A28G G52A A56C U67C A75U U78C yielded a self-cleavage of 0.09.
U1A U43C A57U U58C U76C showed a self-cleavage of 0.08.
With U1C A2C U49C A57G U80C the self-cleavage was 0.67.
In the case of U1C A15C A18U A21C C40U A56G, the self-cleavage is reported as 0.07.
U1A G24A U26C A28G U51A gave a self-cleavage of 0.08.
For U1C A2G A13U U25C U41C U78C, the self-cleavage was 0.4.
With U1A U26C C29U A65G A77G the self-cleavage was 0.08.
With U1A G33U A35G U51A the self-cleavage was 0.22.
With U1C A5G U49C U58A U72A U76A the self-cleavage was 0.31.
U1C A2C A3G A45U U74C gave a self-cleavage of 0.72.
U1C A18G A64G U69C U72C U76C showed a self-cleavage of 0.3.
With U1C A2U U31A U41A G70C the self-cleavage was 0.07.
Work on U1C A2G A20G U31A C32U U41A A64G yielded a self-cleavage of 0.37.
Variant U1A G9A A18G U43C has a self-cleavage of 0.07.
Work on U1A G8U C17A U26C yielded a self-cleavage of 0.23.
In the case of U1A U25G C27U, the self-cleavage is reported as 0.31.
For U1C A28U U43C G63C U72A U80C, the self-cleavage was 1.08.
For U1C A20U A56G U67A U72C, the self-cleavage was 1.06.
U1C A28U G33C A75G U76C showed a self-cleavage of 0.22.
With U1A G9C A15G A35U U43A the self-cleavage was 0.37.
In the case of U1C A18G U43C G70C U80C, the self-cleavage is reported as 0.08.
With U1C A2U A20U U31C the self-cleavage was 0.07.
Variant U1C A3G U31G U41A U49C U51C A65G has a self-cleavage of 0.04.
With U1A C39A A45U U49A the self-cleavage was 0.16.
For U1A U41C U48C A56G U60A, the self-cleavage was 0.19.
For U1A U41C U76C, the self-cleavage was 1.16.
U1A G55C A57U U69A A75G showed a self-cleavage of 0.23.
Variant U1C A5G U66A has a self-cleavage of 0.1.
With U1A U25C U43C the self-cleavage was 0.36.
U1C A3G G8A gave a self-cleavage of 0.54.
U1A C38G C59A A77U showed a self-cleavage of 0.13.
Variant U1A U41A G55U U80C has a self-cleavage of 0.37.
In the case of U1C A21G U25C A45G, the self-cleavage is reported as 0.7.
With U1A G33U U67C the self-cleavage was 0.15.
U1C A20G U31C A45U A56G showed a self-cleavage of 0.09.
U1A G33U U41C showed a self-cleavage of 0.25.
U1C A2U U25C A28U G70U showed a self-cleavage of 0.07.
In the case of U1C A15C U51C U54C U67C, the self-cleavage is reported as 0.09.
With U1A U72A A77G the self-cleavage was 0.87.
U1C A35U A65G A75U gave a self-cleavage of 0.14.
Variant U1C A20U G53A U54C has a self-cleavage of 0.13.
For U1A G30A A45G, the self-cleavage was 0.29.
Variant U1C A56G U60C has a self-cleavage of 0.5.
With U1A G36A U41A A45U the self-cleavage was 0.1.
In the case of U1C A15G U26C A47C A64G G73A, the self-cleavage is reported as 0.07.
Work on U1C A15G U26C U54C U76C yielded a self-cleavage of 0.24.
With U1C A3C U31C A56U U58C the self-cleavage was 0.4.
Work on U1C A18G G33A U80C yielded a self-cleavage of 0.37.
U1C A5U U31C A56G U69C C81G showed a self-cleavage of 0.18.
U1C A35U C62A showed a self-cleavage of 0.28.
Work on U1A U60C G61C U66C yielded a self-cleavage of 0.15.
